Measurements reported in the supplement of paper PMC12217912.
The list shows a part of the results. Sequences were assembled here from the parent chain. Values near 0.05 are background.

B1: TEV protease; numbered along this chain (parent)
chain: MGESLFKGPRDYNPISSSICHLTNESDGHTTSLYGIGFGPFIITNKHLFRRNNGTLVVQSLHGVFKVKDTTTLQQHLVDGRDMIIIRMPKDFPPFPQKLKFREPQREERICLVTTNFQTKSMSSMVSDTSCTFPSGDGIFWKHWIQTKDGQCGSPLVSTRDGFIVGIHSASNFTNTNNYFTSVPKNFMELLTNQEAQQWVSGWRLNADSVLWGGHKVFMVKPEEPFQPVKEATQL

Variants of: B1
Test: raw area under fraction-flipped curve 0-4 h after induction (AUC4h, not background-subtracted), DNA-recorder readout of cleavage of the substrate (dimensionless); higher = more cleavage of the substrate by the protease variant
Conditions: temperature: 34 °C; time window: 0-4 h after rhamnose induction
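Note: Bxb1 expression induced with 0.2% (w/v) L-rhamnose at OD600 near 0.5, cultures sampled hourly, flipped fraction per protease–substrate barcode pair counted by paired-end Illumina sequencing.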

Variant	area with substrate ENLYDQS	area with substrate ENLYEQS	area with substrate ENLYGQS	area with substrate ENLYHQS	area with substrate ENLYIQS	area with substrate ENLYKQS	area with substrate ENLYLQS	area with substrate ENLYMQS	area with substrate ENLYNQS	area with substrate ENLYPQS	area with substrate ENLYQQS	area with substrate ENLYRQS	area with substrate ENLYSQS	area with substrate ENLYTQS	area with substrate ENLYVQS	area with substrate ENLYWQS	area with substrate ENLYYQS	area with substrate ENLYCQS
MGESLFKGPRDYNPISSSICHLTNESDGHTTSLYGIGFGPFIITNKHLFRRNNGTLVVQSLHGVFKVKDTTTLQQHLVDGRDMIIIRMPKDFPPFPQKLKFREPQREERICLVTTNFQTKSMSSMVSDTSCTFPSGDGIFWKHWIQTKDGQCGSPLVSTRDGFIVGIHSASNFTNTNNYFTSVPKNFMELLTNQEAQQWVSGWRLNADSVLWGGHKVFMVCPEEPFQPVKEATQL [K221C]	0.0536	0.0788	0.0665	0.029	0.0947	0.0628	0.0725	0.0774	0.06	0.0619	0.0613	0.0566	0.0644	0.071	0.104	0.0748	0.0532	–
MGESLFKGPRDYNPISSSICHLTNESDGHTTSLYGIGFGPFIITNKHLFRRNNGTLVVQSLHGVFKVKDTTTLQQHLVDGRDMIIIRMPKDFPPFPQKLKFREPQREERICLVTTNFQTKSMSSMVSDTSCTFPSGDGIFWKHWIQTKDGQCGSPLVSTRDGFIVGIHSASNFTNTNNYFTSVPKNFMELLTNKEAQQWVSGWRLNADSVLWGGHKVFMVKPEEPFQPVKEATQL [Q194K]	0.0692	0.0659	0.0663	–	0.147	–	–	–	–	0.0709	–	0.0608	–	–	0.211	–	–	–
MGESLFKGPRDYNPISSSICHLTNESRGHTTSLYGIGFGPFIITNKHLFRRNNGTLVVQSLHGVFKVKDTTTLQQHLVDGRDMIIIRMPKDFPPFPQKLKFREPQREERICLVTTNFQTKSMSSMVSDTSCTFPSGDGIFWKHWIQTKDGQCGSPLVSTRDGFIVGIHSASNFTNTNNYFTSVPKNFMELLTNQEAQQWVSGWRLNADSVLWGGHKVFMVKPEEPFQPVKEATQL [D27R]	0.0582	0.0207	0.0558	–	–	0.0899	0.134	0.0944	0.0633	0.0542	0.0561	–	–	0.0445	–	–	–	–
MGESLFKGPRDYNPISSSICHLTNESDGHTTSLYGIGFPPFIITNKHLFRRNNGTLVVQSLHGVFKVKDTTTLQQHLVDGRDMIIIRMPKDFPPFPQKLKFREPQREERICLVTTNFQTKSMSSMVSDTSCTFPSGDGIFWKHWIQTKDGQCGSPLVSTRDGFIVGIHSASNFTNTNNYFTSVPKNFMELLTNQEAQQWVSGWRLNADSVLWGGHKVFMVKPEEPFQPVKEATQL [G39P]	0.0258	0.0463	0.0542	0.0412	0.0468	0.0362	0.0542	0.0435	0.0354	0.0426	0.0623	–	–	0.0347	–	0.0478	0.053	0.0232
MGESLFKGPRDYNPISSSICHLTNESDGHTTSLYGIGFGPFIITNKHLFRRNNGTLVVQSLHGVFKVKDTTTLQQHLVDGRDMIIIRMPKDFPPFPQKLKFREPQREERICLVTTNFQTKSMSSMVSDTSCTFPSGDGIFWKHWIQTKDGQCGSPLVSTRDGFIVGIHSASNFTNTNNYFTSVPKNFMELLTNQEAQQWVSGWRLNADSVLWGGHKVFMVKPEEPFQPVKRATQL [E231R]	0.0594	0.0616	0.0784	0.0708	0.162	0.0708	0.0894	0.0721	0.0741	0.0838	–	–	0.0995	0.078	–	0.0889	–	–
MGESLFKGPRDYNPISSSICHLTNESDGHTTSLYGIGFGPFIITNKHLFRRNNGTLVVQSLHGVFKVKDTTTLQQHLVDGRDMIIIRMPKDFPPFPQKLKFREPQREERICLVTTNFQTKSSSSMVSDTSCTFPSGDGIFWKHWIQTKDGQCGSPLVSTRDGFIVGIHSASNFTNTNNYFTSVPKNFMELLTNQEAQQWVSGWRLNADSVLWGGHKVFMVKPEEPFQPVKEATQL [M122S]	–	0.0655	–	0.0702	–	–	0.0629	0.0768	0.066	–	–	–	0.0957	0.0554	–	0.0924	–	0.0754
MGESLFNGPRDYNPISSSICHLTNESDGHTTSLYGIGFGPFIITNKHLFRRNNGTLVVQSLHGVFKVKDTTTLQQHLVDGRDMIIIRMPKDFPPFPQKLKFREPQREERICLVTTNFQTKSMSSMVSDTSCTFPSGDGIFWKHWIQTKDGQCGSPLVSTRDGFIVGIHSASNFTNTNNYFTSVPKNFMELLTNQEAQQWVSGWRLNADSVLWGGHKVFMVKPEEPFQPVKEATQL [K7N]	0.0559	0.0682	–	–	–	0.0209	–	0.0863	0.0744	–	0.0732	0.0748	–	–	–	0.0701	–	–
MGESLFKGPRDYNPISSSICHLTNESDGHTTSLYGIGFGPFIITNKHLFRRNNGTLVVQSLHGVFKVKDTTTLQQHLVDGRDMIIIRMPKDFPPFPQKLKFREPQREERICLVTTNFQTKSMSSMVSDTSCTFPSGDGIFWKHWIQTKDGQCGSPLMSTRDGFIVGIHSASNFTNTNNYFTSVPKNFMELLTNQEAQQWVSGWRLNADSVLWGGHKVFMVKPEEPFQPVKEATQL [V157M]	0.0758	0.0646	0.0721	0.0523	0.106	0.0823	–	0.0729	0.0409	0.0692	–	–	0.0694	0.008	0.114	0.0771	–	–
MGESLFKGPRDYNPISSSICHLTNESDGHTTSLYGIGFGPFIITNKHLFRRNNGTLVVQSLHGVFKVKDTTYLQQHLVDGRDMIIIRMPKDFPPFPQKLKFREPQREERICLVTTNFQTKSMSSMVSDTSCTFPSGDGIFWKHWIQTKDGQCGSPLVSTRDGFIVGIHSASNFTNTNNYFTSVPKNFMELLTNQEAQQWVSGWRLNADSVLWGGHKVFMVKPEEPFQPVKEATQL [T72Y]	0.0534	0.0658	–	0.0783	0.124	–	0.07	0.0713	–	0.0639	–	0.0531	0.063	0.0615	0.0846	0.0671	0.06	–
MGESLFKGPRDYNPISSSICHLTNESDGHTTSLYGIGFGPFIITNKHLFRRNNGTLVVQSLHGVFKVKDTTTLQQHLVDGRDMIIYRMPKDFPPFPQKLKFREPQREERICLVTTNFQTKSMSSMVSDTSCTFPSGDGIFWKHWIQTKDGQCGSPLVSTRDGFIVGIHSASNFTNTNNYFTSVPKNFMELLTNQEAQQWVSGWRLNADSVLWGGHKVFMVKPEEPFQPVKEATQL [I86Y]	0.0603	0.0625	0.068	0.0715	–	0.0608	–	0.0498	–	0.054	0.0619	0.0373	–	–	0.0509	–	0.0621	–
MGESLFKGPRDYNPISSSICHLTNESDGHTTSLYGIGFGPFIITNKHLFRRNNGTLVVQSLHGVFKVKDTTTLQQHLVDGRDYIIIRMPKDFPPFPQKLKFREPQREERICLVTTNFQTKSMSSMVSDTSCTFPSGDGIFWKHWIQTKDGQCGSPLVSTRDGFIVGIHSASNFTNTNNYFTSVPKNFMELLTNQEAQQWVSGWRLNADSVLWGGHKVFMVKPEEPFQPVKEATQL [M83Y]	0.0529	0.0638	0.0615	0.0579	–	–	0.0474	–	–	0.0487	–	0.0675	–	–	–	–	–	–
MGESLFKGPRDYNPISSSICHLTNESDGHTTSLYGIGFGPFIITNKHLFRRNNGTLVVQSLHGVFKVKDTTTLQQHLVDGRDMIIIRMPKDFPPFPQKLKFREPQREERICLVTTNFQTKSMSSMVSDTSCTFPSGDGIFWKHWIQTKDGQCGSPLVSTRDGFIVGIHSASNFTNTNNYFTSVPKNFMELLTNQEAQQWVSGWRLNADSTLWGGHKVFMVKPEEPFQPVKEATQL [V210T]	0.06	0.0775	0.0663	0.0682	–	0.0919	–	0.0584	0.0894	0.0738	0.0686	0.0573	–	–	0.116	0.0759	–	–
MGESLFKGPRDYNPISSSICHLTNESDGHTTSLYGIGFGPFIITNKHLFRRNNGTLVVQSLHGVSKVKDTTTLQQHLVDGRDMIIIRMPKDFPPFPQKLKFREPQREERICLVTTNFQTKSMSSMVSDTSCTFPSGDGIFWKHWIQTKDGQCGSPLVSTRDGFIVGIHSASNFTNTNNYFTSVPKNFMELLTNQEAQQWVSGWRLNADSVLWGGHKVFMVKPEEPFQPVKEATQL [F65S]	0.0731	0.0749	0.0696	0.0374	0.109	0.0417	0.0732	0.0755	0.0728	0.0617	–	0.0673	–	0.0652	0.0893	–	–	–
MGESLFKGPRDYNPISSSICHLTNESDGHTTSLYGIGFGPFIITNKHLFRRNNGTLVVQSLHGVFKVKDTTTLQQHLVDGRDMIIIRMPKDFPPFPQKLKFREPQREERICLVTTNFQTKSMSSMVSDTSCTFPSGDGIFWKHWIQTKDGQCGSPLVSTRDGFKVGIHSASNFTNTNNYFTSVPKNFMELLTNQEAQQWVSGWRLNADSVLWGGHKVFMVKPEEPFQPVKEATQL [I164K]	0.0658	–	0.0486	–	–	0.0573	–	–	–	–	0.0678	–	–	–	0.029	–	0.0635	–
MGESLFKGPRDYNPISSSICHLTNESDGHTTSLYGIGFGPFIITNKHLFRRNNGTLVVQSLHGVFKVKDTTTLQQHLVDGRDMIIIRMPKDFPPFPQKLKFREPQREERICLVTTNFQTKSMSSMVSDTSCTFPSGDGIFWKHWIQTKDGQCGSPLVSTRDGFIVGIHSASNFTNTNNYFTSVPKNFMELLTNQEAQQWVSGLRLNADSVLWGGHKVFMVKPEEPFQPVKEATQL [W203L]	0.0705	0.0569	0.0718	0.0638	–	0.0538	0.0501	0.0582	–	0.0617	0.0591	–	0.0565	–	0.0502	–	–	–
MGESLFKGPRDYNPISSSICHLTNESDGHTTSLYGIGFGPFIITNKHLFRRNNGTLVVQSLHGVFKVKDTTTLQQHLVDGRDMIIIRMPKDFPPFPQKLKDREPQREERICLVTTNFQTKSMSSMVSDTSCTFPSGDGIFWKHWIQTKDGQCGSPLVSTRDGFIVGIHSASNFTNTNNYFTSVPKNFMELLTNQEAQQWVSGWRLNADSVLWGGHKVFMVKPEEPFQPVKEATQL [F101D]	0.0523	–	0.0612	–	–	–	–	–	–	–	0.053	–	–	–	–	0.0507	–	–
MGESLFKGPRDYNPISSSICHLTNESDGHTTSLYGIGFGPFIITNKHLFRRNNGTLVVQSLHGVFKVKDTTTLQQHLVDGRDMIIIRMPKDFPPFPQKLKFREPQREERICLVTTNFQTKSMSSMVSDTSCTFPSGDGIFWKHWIQTKDGQCGSPLVSTRDGFIVGIHSASNFTNTNNYFTSVPKNFMELLTNQEAQQWRSGWRLNADSVLWGGHKVFMVKPEEPFQPVKEATQL [V200R]	0.0519	–	0.0525	0.0238	–	0.06	0.0755	0.0547	0.0593	–	–	0.0709	–	–	0.0941	–	0.0553	–
MGESLFKGPRDYNPISSSICHLTNESDGHTTSLYGIGFGPFIITNKHLFRRNNGTLVVQSLHGVFKVKDTTTLQQPLVDGRDMIIIRMPKDFPPFPQKLKFREPQREERICLVTTNFQTKSMSSMVSDTSCTFPSGDGIFWKHWIQTKDGQCGSPLVSTRDGFIVGIHSASNFTNTNNYFTSVPKNFMELLTNQEAQQWVSGWRLNADSVLWGGHKVFMVKPEEPFQPVKEATQL [H76P]	0.0447	–	0.0575	0.0561	0.0527	0.0545	–	0.0556	0.0555	0.0582	0.0592	0.0574	0.0606	0.0538	–	–	0.0583	0.0373
MGESLFKGPRDYNPISSSICHLTNESDGHTTSLYGIGFGPFIITNKHLFRRNNGTLVVQSLHGVFKVKDTTTLQQHLVDGRDMIIIRMPKDFPPFPQKLKFREPQREERICLVTTNFQTKSMSSMVSDTSCTFPSGDGIFWKHWIQTKDGQCGSPLVSTRDGFIVGIHSASNFTNTNNYFTSVPKNFMELLTNQEAQQWVSGWRLAADSVLWGGHKVFMVKPEEPFQPVKEATQL [N206A]	0.0568	–	–	–	–	0.0211	–	–	–	–	0.0612	–	–	–	–	–	–	–
